Measured values taken from PubChem BioAssay AID1159614 (National Center for Advancing Translational Sciences (NCATS), 2016).
The whole screen tested about 45,000 compounds, of which about 65 (0.1%) were called active. Calls follow the shape of the dose curve; as a rule, active = well fitted activation curve with a large enough effect; inconclusive = small, poorly fitted or top-dose-only effect; inactive = no such curve, though single readings can be large or run the other way. Some of the results follow.

Each compound was assayed against Galactocerebrosidase (Homo sapiens) (UniProt P54803) (assay: A Novel Cell-Based Assay to Identify Small Molecules for B -Galactocerebrosidase). Settings: 145M-Twi-hGALC-G270D cells (Twitcher mouse brain line with human GALC G270D), HMU-beta-Gal fluorescence, 48 h; series mostly up to 57.5 µM; activation: at the top concentration.
Sequence of UniProt P54803 (P54803 whole entry, looked up): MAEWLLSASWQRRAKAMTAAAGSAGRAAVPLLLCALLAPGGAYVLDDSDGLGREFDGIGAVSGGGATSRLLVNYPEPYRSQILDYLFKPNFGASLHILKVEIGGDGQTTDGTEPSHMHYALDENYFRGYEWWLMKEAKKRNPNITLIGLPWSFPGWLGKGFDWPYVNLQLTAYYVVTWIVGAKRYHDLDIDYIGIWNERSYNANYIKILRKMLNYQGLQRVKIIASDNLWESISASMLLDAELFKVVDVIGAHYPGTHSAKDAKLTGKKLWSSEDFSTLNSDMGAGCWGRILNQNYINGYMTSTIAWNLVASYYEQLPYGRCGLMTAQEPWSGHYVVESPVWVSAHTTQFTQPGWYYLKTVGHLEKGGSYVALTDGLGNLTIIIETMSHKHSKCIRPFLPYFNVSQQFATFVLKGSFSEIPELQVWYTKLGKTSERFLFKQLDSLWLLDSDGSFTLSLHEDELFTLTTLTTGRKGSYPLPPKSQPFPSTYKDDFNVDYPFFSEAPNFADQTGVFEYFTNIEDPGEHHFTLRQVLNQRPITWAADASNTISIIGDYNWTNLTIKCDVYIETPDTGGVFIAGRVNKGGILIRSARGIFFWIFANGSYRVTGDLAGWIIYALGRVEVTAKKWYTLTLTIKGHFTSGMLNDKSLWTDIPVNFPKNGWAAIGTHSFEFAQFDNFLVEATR
Method in brief: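 Mutant human GALC (G270D), stably expressed in a Twitcher mouse brain cell line lacking endogenous GALC, is measured in live-treated cells via 6-hexadecanoylamino-4-methylumbelliferyl-β-galactoside hydrolysis (0.1 mM final, pH 5.2) with fluorescent detection.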
Also: 0% is about no effect; nearly all actives have a fitted effect of over 65% in size.

activation, inactive:
O=C(NCc1cccs1)c1ccc(CSc2nc3ccncc3n2Cc2ccccc2)cc1 -3.31%, Cc1ccc(C)c(Cn2c(=O)n(Cc3ccccc3)c(=O)c3c2c2cc(C)ccc2n3C)c1 -15.7%, CCOc1ccc(S(=O)(=O)NCCc2csc3nc(-c4ccc(F)cc4)nn23)cc1 -1.15%, COc1cccc(C2=NS(=O)(=O)N(C)C(C(=O)Nc3ccccc3SC)=C2)c1 -9.93%, COc1cc(NC(=O)CNS(=O)(=O)c2cccs2)cc(OC)c1OC -16%, COc1ccc(-c2cc(C(=O)Nc3cccc(O)c3)on2)cc1OC -10.7%, Fc1ccc(CSc2nc(NCc3ccccc3)c3ccccc3n2)cc1 -9.43%, COc1ccc(CNC(=O)Cn2c(=O)cc(C)c3c(C)nn(-c4cccc(Cl)c4C)c32)cc1 -15.6%, CCOC(=O)c1ccc(NC(=O)Cn2c(=O)cc(C(F)(F)F)c3c(C)nn(C)c32)cc1 4.21%, Cc1ccc(C(=O)Nc2ccc(S(=O)(=O)Nc3onc(C)c3C)cc2)cc1 1.51%, Cc1ccc(Cl)cc1N1CCN(CCCNC(=O)C2COc3ccccc3C2)CC1 (stereo not given) 2.7%, Cn1c(=O)[nH]c2cc(-c3noc(-c4ccc(Br)cc4)n3)ccc21 -1.45%, Cc1cccc(-c2nn3c(=O)cc(CN4CCN(C(=O)/C=C/c5ccccc5)CC4)nc3s2)c1 -1.68%, COc1ccccc1Nc1nc(-c2ccccc2F)nc2ccccc12 -49.8%, CCC(C)c1ccc2oc(-c3ccc(NC(=O)c4cc5ccccc5o4)cc3)nc2c1 (stereo not given) -14.4%, Cc1cccc(Cn2c(=O)n3nc(-c4ccccc4)nc3c3ccccc32)c1 -11.3%, CC(C)c1ccc(S(=O)(=O)c2nnn3c2nc(N2CCCC2)c2sccc23)cc1 1.18%, CCCC(=O)Nc1nnc(S(=O)(=O)N(C)Cc2ccc(Cl)cc2)s1 4.99%, COc1cc2c(C(=O)Nc3cc(OC)c(OC)c(OC)c3)cn(C)c(=O)c2cc1OC 0.258%, Cc1ccc(NC(=O)CSc2nnc3ccc4ccccc4n23)cc1 21.8%, O=C(NCCN1CCN(c2cccc(Cl)c2)CC1)Nc1ccccc1 -3.31%, CCc1ccc(NC(=O)c2ccc(-c3ccccc3)s2)cc1 -3.44%, O=C(CC1N=C2c3ccccc3N=C(SCc3ccc(F)cc3)N2C1=O)NCc1ccc2c(c1)OCO2 (stereo not given) -9.6%, Cc1cccc(NC(=O)c2ccc(-c3ccccc3)s2)c1 -27.7%, CCC(Oc1ccccc1)C(=O)Nc1nnc(S(=O)(=O)N(CC)CC)s1 (stereo not given) -13.5%, CCc1cnc2c(c1SCC(=O)NCc1ccccc1Cl)c(=O)n(C)c(=O)n2C -14.3%, CCc1ccc(NC(=O)c2cnn(-c3ccccc3)c2-n2cccc2)cc1 -12%, Cc1cccc(C(=O)NCC(c2ccco2)S(=O)(=O)c2cccs2)c1 (stereo not given) -19.3%, CCOC(=O)C1CCN(c2ncnc3c2nc2n3CCCCC2)CC1 -3.82%, CN(C(=O)CSc1nnc(NC(=O)Nc2ccccc2)s1)c1ccccc1 -8.11%, Cc1cc(C)c(NC(=O)C2CCN(c3nc4ccccc4n4cccc34)CC2)c(C)c1 -15.2%, COc1cc2ccccc2cc1C(=O)Nc1cccc(-c2nc3cc(C)c(C)cc3o2)c1 -9.64%, COC(=O)c1c(NC(=O)c2ccc(S(=O)(=O)N3CCC(C)CC3)cc2)sc2c1CCN(C)C2 -2.23%, O=C(NCC(c1cccnc1)N1CCc2ccccc21)c1cccc(Br)c1 (stereo not given) -5.82%, COc1ccc(-n2ncc(C(=O)NCc3ccco3)c2C2CCN(C(=O)OC(C)(C)C)CC2)cc1 -9.43%, CC(C)NC(=O)C1CCC(Cn2c(=O)c3sccc3n(Cc3ccc(F)cc3)c2=O)CC1 (stereo not given) -12.9%, Brc1cccc(-c2nnn3c2nc(NCc2ccc4c(c2)OCO4)c2ccccc23)c1 -2.76%, CCCC(=O)N(c1ccc2oc(C)c(C(C)=O)c2c1)S(=O)(=O)c1ccc(CC)cc1 -32.5%, NCCNCCNCCNCCN -4.05% [at 11.5 µM], COc1ccc(N2CCN(c3ncnc4c3cnn4C)CC2)cc1 -6.71%, CCOc1cccc(NC(=O)C2CC(=O)N(CC)C(=Nc3ccc(F)cc3)S2)c1 (stereo not given) -14%, O=C1CS(=O)(=O)C2(C(=O)N(Cc3ccccc3Cl)c3ccccc32)N1c1ccc(F)cc1 (stereo not given) -26.8%, COc1ccc(Cn2c(C(=O)O)c(CNCCc3ccco3)c3ccc(OC)cc32)cc1 -14.8%, Cc1ccc(NC(=O)/C(C#N)=C/c2ccc(-c3ccc(Cl)c(C(=O)O)c3)o2)cc1C -19%, CCCNC(=O)Cn1c(=O)n(CC2CCC(C(=O)NC)CC2)c(=O)c2sccc21 (stereo not given) -12.4%, CCN(CC)S(=O)(=O)c1ccc2c(c1)N(CC(=O)Nc1ccccc1F)C(=O)C1CCCN21 (stereo not given) -11.7%, CC(C)(C)c1ccc(/C=C/C(=O)Nc2ccc(S(N)(=O)=O)cc2)cc1 -22.3%, COc1cccc(NC(=O)C2CCCN(S(=O)(=O)c3cn(C(C)C)cn3)C2)c1 (stereo not given) -10.7%, CCOc1ccc(CCNC(=O)c2cc3cccc4c3n2CCS4)cc1 -4.96%, COC(=O)c1c(-c2ccc(Cl)cc2)noc1N1CCN(c2cc(C)ccc2C)CC1 -8.53%, COCCCNC(=O)c1cc2cc(S(=O)(=O)N3CCCCC3)ccc2n1C -1.87%, CCC(C)(C)NC(=O)C1CCN(S(=O)(=O)c2ccc3c(c2)CCCN3C(C)=O)CC1 -18.3%, Cc1cc(C)c(NC(=O)CSc2ncc3c(n2)-c2cc(Cl)ccc2N(C)S3(=O)=O)c(C)c1 -13.1%, C=Cc1ccc(Cn2c(C(=O)O)c(CNCc3ccc(F)cc3)c3ccc(C)cc32)cc1 -2.23%, Cc1cccc(C(=O)Nc2ccc(S(=O)(=O)N3CCC(c4nc5ccccc5s4)CC3)cc2)c1 -2.87%, COc1ccc(NC(=O)C2=CC(c3ccco3)=NS(=O)(=O)N2C)cc1 -14.1%, Cc1ccccc1S(=O)(=O)Cc1ccc(C(=O)N2CCN(c3cccc(Cl)c3)CC2)o1 -29.7%, Cc1cc(SCC(=O)NCc2ccc(Cl)cc2)nc(=O)[nH]1 5.89%, CCCCCn1c(=O)[nH]c2cc(C(=O)Nc3ccc(F)c(F)c3)ccc2c1=O -16.4%, N#Cc1ccc(-c2cccs2)nc1SCC(=O)Nc1cccc(C(F)(F)F)c1 -10.3%, Cc1cccc(NC(=O)c2cc(S(=O)(=O)NCCc3ccccc3)ccc2F)c1C -6.45%, COc1ccccc1C1c2c(-c3ccc(Cl)cc3)n[nH]c2C(=O)N1c1ccc(C)cc1 (stereo not given) -6.4%, Cc1ccccc1C(=O)Nc1cccc(OCc2cc(=O)n3c(C)csc3n2)c1 -9.76%, CCN1CCN(Cc2c(O)ccc3c(C)c(-c4ccc(OC)cc4)c(=O)oc23)CC1 -6.29%, Cc1ccc(S(=O)(=O)N2CCC(C(=O)NCc3ccccc3Cl)CC2)cc1 -9.06%, CCN(CC)CCOC(=O)c1ccc(NC(=O)c2cc3c(=O)n(CC)c4ccccc4c3s2)cc1 -0.691%, COc1ccccc1N1CCN(c2ncnc3c2nnn3C)CC1 -3.02%, Cc1ccc(C)c(NC(=O)CN2CCSc3ccc(S(=O)(=O)N4CCCC4)cc32)c1 -22.5%, CCOCCn1ccc2c(OCC(=O)Nc3ccc(C(N)=O)cc3)cccc2c1=O -19.6%, CC(C)c1ccc(CN(C(=O)c2cc3ccccc3oc2=O)C2CCS(=O)(=O)C2)cc1 (stereo not given) -30.9%, COc1ccc(NC(=O)C2CCN(S(=O)(=O)c3cccc(-c4noc(C)n4)c3)CC2)cc1OC -21.3%, CCOC(=O)c1oc2ccc(S(=O)(=O)n3nc(-c4ccc(C)cc4)cc3N)cc2c1C -40.3%, Cc1cc(S(=O)(=O)N2CCN(Cc3noc(CCC(=O)N4CCCCC4)n3)CC2)ccc1F -33.8%, CN(C)c1ccc(CNC(=O)C2CCN(c3nc4ccccc4[nH]3)CC2)cc1 -0.404%, CCCc1nn2c(=O)cc(COC(=O)c3ccc(NC(=O)COc4ccc(F)cc4)cc3)nc2s1 -9.08%, COC(=O)c1cc2occc2n1Cc1nc(-c2ccccc2)oc1C -10.1%, COc1cccc2sc(N(Cc3cccnc3)C(=O)c3ccc4c(c3)OCCO4)nc12 -21.3%, COc1ccc(C2NC(=O)N(C)C3=C2C(=O)N(c2ccc(Br)cc2)C3)cc1 (stereo not given) -14%, CCOC(=O)CC(NC(=O)CCc1c(C)nc2c(-c3ccccc3)c(C)nn2c1C)c1ccc(OC(C)C)cc1 (stereo not given) -27.8%, COc1cccc(CNC(=O)c2cnc3sc(N4CCCC4)nn3c2=O)c1OC -4.99%, CCOC(=O)COc1ccc(C2C(C(=O)OC)=C(C)NC3=C2C(=O)c2ccccc23)cc1Cl (stereo not given) 2.88%, COc1ccc(Cn2c(CCC(=O)NCc3ccc(Cl)cc3)nc3cccnc32)cc1 -12.5%, CSc1ccc(CCNC(=O)NCc2noc3ccccc23)cc1 -14.8%, Cc1cccc(NC(=O)Cn2cc(C(=O)C3CCCCC3)c3ccccc32)c1 -14.4%, COC(=O)c1cc(Cl)ccc1OC -20.5%, CCOC(=O)c1cc(S(=O)(=O)Nc2cc(OC)ccc2OC)[nH]n1 3.09%, Cc1ccc(C(=O)NCC(c2ccc3c(c2)OCO3)N2CCOCC2)cc1C (stereo not given) -8.39%, COc1ccc(Cl)cc1NC(=O)c1cc2c(=O)n3ccccc3nc2s1 -8.81%, O=C(CSc1cn(CC(=O)N2CCCC2)c2ccccc12)Nc1ccc(Cl)cc1 -11.1%, COc1ccc(CNc2nc(-c3ccco3)nn2S(=O)(=O)c2ccc(Cl)cc2)cc1OC -6.39%, Cc1cc2c(cc1S(N)(=O)=O)S(=O)(=O)CCC2 -8.77%, Cc1cc(C)n(-c2nnc(Nc3ccc(C)c(C)c3)c3ccccc23)n1 -22.8%, C[C@H]1O[C@H](O[C@H]2[C@H](O)[C@@H](O)[C@@H](O[C@H]3[C@H](O)[C@@H](O)[C@H](O)O[C@@H]3CO)O[C@@H]2CO)[C@H](O)[C@@H](O)[C@@H]1N[C@H]1C=C(CO)[C@@H](O)[C@H](O)[C@H]1O -11%, CN(c1ccccc1)S(=O)(=O)c1ccc(NC(=O)c2nc(S(C)(=O)=O)ncc2Cl)cc1 -16%, COc1ccc(-c2c(C#N)c(SCC(=O)Nc3ccccc3C)nc(C)c2C(=O)Nc2ccc(Cl)cc2)cc1 -13.1%
